# Test results reported in PubChem BioAssay AID624417 (National Center for Advancing Translational Sciences (NCATS), 2012).
# Among all 410,000 compounds or so, about 6,400 (1.6%) were called active. This list was built around the results that the source calls inconclusive (neither active nor inactive); the mix of calls is not that of the screen. Calls come from the whole dose curve; as a rule, active = well fitted inhibition curve with a large enough effect; inconclusive = small, poorly fitted or top-dose-only effect; inactive = no such curve, though single readings can be large or run the other way. No potency is given beside an inconclusive call; the fits are too rough.
# Biological target: Glucagon-like peptide 1 receptor (Homo sapiens) (UniProt P43220)
# UniProt P43220, sequence (P43220 whole entry, looked up): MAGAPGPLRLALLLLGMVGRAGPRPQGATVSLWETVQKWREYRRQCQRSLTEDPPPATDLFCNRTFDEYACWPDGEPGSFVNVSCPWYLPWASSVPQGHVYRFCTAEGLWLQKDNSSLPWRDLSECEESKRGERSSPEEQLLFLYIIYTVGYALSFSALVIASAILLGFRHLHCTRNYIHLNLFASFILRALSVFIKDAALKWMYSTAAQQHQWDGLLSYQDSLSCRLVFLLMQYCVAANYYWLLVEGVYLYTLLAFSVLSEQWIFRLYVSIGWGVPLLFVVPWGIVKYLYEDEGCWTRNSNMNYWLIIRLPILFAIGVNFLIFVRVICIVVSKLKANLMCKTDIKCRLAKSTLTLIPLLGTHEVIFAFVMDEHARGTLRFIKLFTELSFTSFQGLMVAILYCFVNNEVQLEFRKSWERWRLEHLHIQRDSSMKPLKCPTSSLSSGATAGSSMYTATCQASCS
# Experiment: qHTS of GLP-1 Receptor Inverse Agonists (Inhibition Mode); note: nearly all actives have a fitted effect of over 55% in size
# Settings: HEK293 GLP-1R CRE-luciferase, luminescence, 24 h, GLP-1R form is constitutively active; activity change, negative = inhibition: at 38.3 µM (top of the series) unless noted
# Summary of the method: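 Cells are plated, allowed 12 hours at 37 deg C, then treated with compounds for 24 hr before luciferase detection reagent is added and luminescence is read after 12 min at room temperature. The HEK293 line carries constitutively active GLP-1R with a cAMP-responsive reporter.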
# % is set by controls: 0 for no effect and ±100 for the full control effect; potency is the fitted concentration of half-maximal effect; tags give direction and shape of the fitted curve.
Structure (SMILES),"activity change, negative = inhibition",Potency
CCc1nn(CC(=O)NCCCOC)c(=O)c2cc3ccccc3n12,inactive: 12.5%,
N#Cc1ccc(OCC(O)CN2CCN(c3ncc(C(F)(F)F)cc3Cl)CC2)cc1 (centres undefined),,"inconclusive [inhibitor, partial curve, poor fit]"
COc1ccc(CN(C)S(=O)(=O)c2nnc(NC(=O)c3cccc(F)c3)s2)cc1,,"inconclusive [inhibitor, single point]"
O=C(CSCc1ccc(F)cc1)Nc1nc2c(s1)CCCC2,,"inconclusive [inhibitor, single point]"
CCC1CN(C(=O)N2CCC(C(=O)NCCc3ccccc3)CC2)c2ccccc2O1 (centres undefined),,"inconclusive [inhibitor, single point]"
CC(C(=O)O/N=C(\N)c1ccccn1)c1ccc([N+](=O)[O-])cc1 (centres undefined),inactive: -12.1%,
CC1Cc2ccccc2N1C(=O)CSc1nnc2sc3ccccc3n12 (centres undefined),,"inconclusive [inhibitor, single point]"
Cc1ccc(Oc2nc3ccccc3n3cccc23)cc1,,"inconclusive [inhibitor, single point]"
CC(C)(C)NC(=O)[C@]1(C)CCC[C@@]2(C)C3CC[C@@]4(C)C[C@]3(CCC21)CC4=O (some centres undefined),,"inconclusive [inhibitor, single point]"
Cc1ccccc1C(=O)N/N=C1\SCC(=O)N1Cc1ccco1,inactive: 4%,
COc1ccc(C2(C(=O)Nc3ccc(C)c(C)c3)CCOCC2)cc1,,"inconclusive [inhibitor, partial curve, poor fit]"
O=C(Nc1ccc2c(c1)OCO2)C1CCCN(S(=O)(=O)c2cccs2)C1 (centres undefined),,"inconclusive [inhibitor, full curve, poor fit]"
Cc1ccc(Cl)cc1N1CCN(C(=O)c2ccc(CS(=O)Cc3ccc(Cl)cc3)o2)CC1 (centres undefined),,active: 8.91 µM
Cc1ccc(Cl)cc1NC(=O)C1CCN(c2nc3ccccc3n3cccc23)CC1,inactive: 1.25%,
CCOc1ccc2nc(N3CCCC(C(=O)NCc4ccccc4OC)C3)sc2c1 (centres undefined),inactive: 5.57%,
COc1ccc(CCNc2oc(-c3ccccc3OC)nc2C#N)cc1,inactive: -32.8%,
COc1cccc(NC(=S)NN=C2CCCCCC2)c1,,"inconclusive [inhibitor, single point]"
O=C(NCCc1ccc(Cl)cc1)c1ccc2c(c1)OCCO2,,"inconclusive [inhibitor, partial curve, poor fit]"
Cc1nnc2c3ccccc3nc(Nc3cccc(O)c3)n12,inactive: 41.4%,
CCOc1ccc2oc(C(=O)N3CCN(c4ccccn4)CC3)c(C)c2c1,,"inconclusive [inhibitor, single point]"
COc1ccc(-c2noc(CN(C(=O)c3cc(OC)c(OC)cc3OC)C(C)C)n2)cc1,inactive: 0.43%,
O=C(COc1ccc(C(=O)c2ccccc2)cc1)NCc1ccc(F)cc1,,"inconclusive [inhibitor, partial curve, poor fit]"

Structure (SMILES),"activity change, negative = inhibition",Potency
CCCN(CC(=O)Nc1ccccc1C)C(=O)CSc1ccccc1C,,"inconclusive [inhibitor, single point]"
CC(C)CC(=O)OC(C)(C)[C@@H]1Cc2c(ccc3ccc(=O)oc23)O1,,"inconclusive [inhibitor, single point]"
COc1cc(C2C(C(=O)Nc3ccccc3)=C(C)Nc3nnnn32)cc(OC)c1OC (centres undefined),,"inconclusive [inhibitor, partial curve, poor fit]"
CCOC(=O)c1ccc(NC(=O)c2nc(SCc3ccccc3F)ncc2Cl)cc1,,"inconclusive [inhibitor, single point]"
COc1ccc(-c2noc(CSc3nc(N)cc(=O)[nH]3)n2)cc1OC,inactive: 20.1%,
COc1ccccc1/C=C\C(=O)NCC(=O)N/N=C/c1ccc(O)cc1O,,"inconclusive [inhibitor, partial curve, poor fit]"
Clc1ccc(N2CCN(Cc3ccc(Br)o3)CC2)cc1,,"inconclusive [inhibitor, single point]"
CC1CN(S(=O)(=O)c2cccc(C(=O)NCC3COc4ccccc4O3)c2)CC(C)O1 (centres undefined),,"inconclusive [inhibitor, partial curve, poor fit]"
O=C(NCCc1ccncc1)Nc1ccc(Cl)c(Cl)c1,,"inconclusive [inhibitor, single point]"
CCCc1cc(C(=O)Nc2c(C)nn(Cc3ccc(Cl)c(Cl)c3)c2C)no1,,active: 10 µM
CC(C)c1ccc(OCc2cccc(C(=O)N/N=C/c3cccnc3)c2)cc1,inactive: -68.9%,
COc1ccc(CC(=O)N(Cc2ccccc2)c2ccc(C)cc2)cc1S(=O)(=O)N1CCOCC1,,"inconclusive [inhibitor, single point]"
Nc1cc(-c2ccccc2)nn1S(=O)(=O)c1ccc(Br)cc1,,"inconclusive [inhibitor, single point]"
COc1ccc(CN2C(=O)N(c3ccc(C)cc3)C(=O)C2CC(=O)Nc2ccccc2)cc1OC (centres undefined),inactive: -1.11%,
Cc1[nH]c2ccccc2c1C(=O)C(=O)N1CCN(c2ccccc2)CC1,,"inconclusive [inhibitor, single point]"
COc1ccc(CCC(=O)N2CCCC(Nc3ccccc3)C2)cc1OC (centres undefined),inactive: 0.107%,
CCCCN1CC(C)(C)[C@H](CC(=O)Nc2ccc(Br)cc2)C1=O,,"inconclusive [inhibitor, partial curve, poor fit]"
CC(C)C[C@H](N)c1nnc(SCc2ccc(Cl)cc2)o1,,"inconclusive [inhibitor, partial curve, poor fit]"
COc1cccc(NC(=O)NCCc2ccc(Cl)cc2)c1,,active: 10 µM
CC(C)Cn1c(N)c(C(=O)COC(=O)c2cc(-c3ccccc3)nc3ccccc23)c(=O)n(C)c1=O,inactive: 13.2%,
Cc1cccc(C)c1NC(=O)C(c1ccccc1)N(C)CCc1ccccc1 (centres undefined),,"inconclusive [inhibitor, single point]"
CCOC(=O)C1(CCCc2ccccc2)CCN(CCCn2cccn2)CC1,,"inconclusive [inhibitor, single point]"
